From article PMC12136788
This is one part of the list.

B1: chr13:100204638:100204639:-_ENSMUSG00000052727_ENSMUST00000064762|mus_mus|FALSE|FALSE (ssRNA)
RNA: GGGAGUUCUACAGUCCGACGAUCGGGGGUGGGCACCUGGCCAGUGAGAUCUUUUUGGGUGGCCAGUGGCUGCUUUAGGAAAUCUAGAUGUUUGAGUUUCUCCAGUCCUUCUAGGAUGUUGUACUGGGUACUGUUUCCGGGAAACAACAGAGGAUUGAGCAUCA
B2: chr2:131764077:131764078:+_ENSMUSG00000079037_ENSMUST00000091288|mus_mus|FALSE|FALSE (ssRNA)
RNA: GGGAGUUCUACAGUCCGACGAUCAUACAUGCAAAGUUACAAAUAUAGAAAACGUGAAGUACAUGCAGAUUCAAAGACCAGCUAGGGGUCUGCUUUGGAAUCCUACGGAACUGAGUGCACGCUGAAAGCCCAAGGGUCACACGGCAACAGAGGAUUGAGCAUCA
B3: chr5:146773137:146773138:-_ENSG00000113657_ENST00000343218|hu_mus|FALSE|FALSE (ssRNA)
RNA: GGGAGUUCUACAGUCCGACGAUCCCAUGGAAAUUAACACACAUCAUAAUACAACACACAAUGCCCUUCUGCUCACCCCACCCACCCACCUCCCUAGUACACGUCCCACCCCAGCCCCUUUGUGCCCUCCAUCUUGCCCUGGGCCAACAGAGGAUUGAGCAUCA
B4: 135173520_135173640_5850_CDS_ENSG00000107290_ENST00000224140|human|control|control (ssRNA)
RNA: GGGAGUUCUACAGUCCGACGAUCUGGAUUCAGAACAGCUCUAGCCAGUUGGUUCCGACUACCCAACAGAGACAUGGCUUUCAACUUCCUUUGUGUAGUUACCAGAGAACUGAUUACAAUACAAUUCACAAGUUCGUUUAAAUUCAACAGAGGAUUGAGCAUCA
B5: chr2:22790581:22790582:+_ENSMUSG00000026784_ENSMUST00000139472|mus_mus|FALSE|FALSE (ssRNA)
RNA: GGGAGUUCUACAGUCCGACGAUCUAGACACUGUUGAGCGCACACUGAAAUCAUCGGGGGAUUAAGUGCCUUGAUCCCACUCCCCACAAAUCUGAUUAUACUGGUGUUAUGAUCAUCAAAUGUUUUAAUGCACACCUCCUUUGGCAACAGAGGAUUGAGCAUCA
B6: 80004202_80041456_112_5pUTR_ENSMUSG00000042428_ENSMUST00000044970|mouse|control|control (ssRNA)
RNA: GGGAGUUCUACAGUCCGACGAUCCACAGGCCAGCCAUACAGAACAUGAGAAAGAGCUUGUAGCGUCUCAUCUUCAUCCCAUCGUCCGCUGGGUCUCAGCAGCGGCGGUAGAAGCAGCGGCGGCGGCGGCUCCGGGGCCCCCGGCAACAGAGGAUUGAGCAUCA
B7: chr7:141450121:141450122:+_ENSG00000106028_ENST00000265304|hu_mus|hu_hu_hu_mus_True|98_108 (ssRNA)
RNA: GGGAGUUCUACAGUCCGACGAUCUCAUCCUUUCUACUCCUUCUCUUUUGUCUGGUCACUCAGAAAUAUAAUGUUAUCAGCUAUGAUUGUUGUUGCUUGCCGCCUCACAUUGUUUUUAUCCAUGUACUCGCCAUAGUCCACUUUCAACAGAGGAUUGAGCAUCA
B8: 5812188_5812979_1080_CDS_ENSG00000099219_ENST00000339450|human|control|control (ssRNA)
RNA: GGGAGUUCUACAGUCCGACGAUCUCCAUUCUCAAUAAAAGCUAAGUCUAUUCCUGGAAUGUUCCCAAAAUCCCUGUAGAUACGAAAGUCAGUAUCUGAAGGAAUGAUUCCACUCUGAAAAACCUCCUGAGCCACCACAGAAGCCAACAGAGGAUUGAGCAUCA
B9: chr5:37680062:37680063:+_ENSMUSG00000029121_ENSMUST00000031004|mus_hu|FALSE|FALSE (ssRNA)
RNA: GGGAGUUCUACAGUCCGACGAUCUUUGGGUGUAGCUGGUACCUCGUACACAGGACCGUCAUACAUGCCCCUGGAAACCCCUUGCAAUCCAAAAACCUUAUUCCUGAUUUUGACGCGCUGGUACAGGUGCUCCGGGAACGCCUUCAACAGAGGAUUGAGCAUCA
B10: 109148981_109149101_239_3pUTR_ENSMUSG00000028557_ENSMUST00000030284|mouse|control|control (ssRNA)
RNA: GGGAGUUCUACAGUCCGACGAUCCCGGCGCCACCGAGGGGCCGCUCAUGCCAGCCCCCGGGACAGGGGGCGCGAGGCUAGGCCGCGGGCUGCGCCGGGGUCGCGUCUGGAACCUGAGGGGGGCGGGGGCGGGAAGACUGAGCGCAACAGAGGAUUGAGCAUCA
B11: chr14:63888807:63888808:-_ENSG00000154001_ENST00000337537|hu_mus|FALSE|FALSE (ssRNA)
RNA: GGGAGUUCUACAGUCCGACGAUCUUCAUUGCUGUCACUAGGAGGGAGAGUUCUGAAUAUAUUGCAAGAUACCAUUCUAACUACUUCAGGGUAAGUCUGCUCUGUCAGACAGCCUCUGCUUAUUGUAAUGUAGUCCACCAGUUCCAACAGAGGAUUGAGCAUCA
B12: 128976402_128976621_833_CDS_ENSG00000181789_ENST00000314797|human|control|control (ssRNA)
RNA: GGGAGUUCUACAGUCCGACGAUCGUGCUUGUUGCGCAAGCAGCUCUCGAUGAAGUCAAACAGUGGGCUGUCACGGCUGCCAUCCUCCUCUUCCAGCUGCUUGCUGGCCACCCGGAUCAUCAUGCAGUAGGCAAAGGGAGACUUCAACAGAGGAUUGAGCAUCA
B13: chr4:103717771:103717772:-_ENSG00000109332_ENST00000394803|hu_hu|FALSE|FALSE (ssRNA)
RNA: GGGAGUUCUACAGUCCGACGAUCUCCAGGCAGCUAACUCAUUGGUUUAUGCAACUUUAUUGAAGAAAAAUAAAUCAAUUACUAGCAGAGCUAUUAGUUGAUCACUCAUCCAUUGACAACUUGCAUCAUUUAUUCAGUGCUAUACAACAGAGGAUUGAGCAUCA
B14: chr13:55348081:55348082:+_ENSMUSG00000021488_ENSMUST00000099490|mus_hu|FALSE|FALSE (ssRNA)
RNA: GGGAGUUCUACAGUCCGACGAUCAUCCACUUUCCCACUUUUAGAAAUGCUGGCCAAAGGAGAGCCUUUGGUAUCAGAAGAGCAGCAUUUCAAACUGCACUCCUCAUUUAUAACUGGGGGUUCUGCCAUAACUGGAUUUUCUUUCAACAGAGGAUUGAGCAUCA
B15: 37429575_37429695_12100_3pUTR_ENSMUSG00000026915_ENSMUST00000028279|mouse|control|control (ssRNA)
RNA: GGGAGUUCUACAGUCCGACGAUCCUGCACUUUCUUCUGCUCACAGAUGUCCCUGCCAAGGACCCUUCCAGAAUCCCCUCAUUGCUCUGUGCUGUCCCAUCUAAAGGCCUGCGGACUUGGACCAGGGCUACUGCAAUUGUGACUCAACAGAGGAUUGAGCAUCA
B16: chr3:193353255:193353256:+_ENSG00000198836_ENST00000392438|hu_hu|motif|central (ssRNA)
RNA: GGGAGUUCUACAGUCCGACGAUCAAUCAAAGAUUUCUUAAGCUUUCUAUGAUGAAUGCCUUUGUCAUCUUUCUGCAAUACGGAUUUUCUCAAUUCUUUGUUCUCCUUUUCUAAUCGUUCCAAGAUUCUCUGAUACUUCAACUGCAACAGAGGAUUGAGCAUCA
B17: chr1:52223104:52223105:-_ENSMUSG00000026103_ENSMUST00000114513|mus_mus|FALSE|FALSE (ssRNA)
RNA: GGGAGUUCUACAGUCCGACGAUCAUCAUCAGAAUCCCCUUGAGGUGUGUACUGAACUUGGUAUUCCUGAAGGAUUUUAAAAACAUCAUGGUGUCCAAAGUGUAGUGCUUCAUCCAUGGGGGUAUUAUUCCACCUGUCCUUGGGCAACAGAGGAUUGAGCAUCA
B18: chr1:220276048:220276049:+_ENSG00000067704_ENST00000302637|hu_hu|hu_hu_hu_mus_True|8_98 (ssRNA)
RNA: GGGAGUUCUACAGUCCGACGAUCGCAAAUUGCCUGGUUGGCUGGAAUUGUCCAAGGCUGGGUGGUCCAAACUAAAACGCUAACAGGGGAUGAGGCAUCUGUAAGAGACUCCAACUUCGGAGGAGGUUUUAAGAGAGGGAAUCUCAACAGAGGAUUGAGCAUCA
B19: chr1:93301758:93301759:+_ENSG00000122406_ENST00000370321|hu_mus|FALSE|FALSE (ssRNA)
RNA: GGGAGUUCUACAGUCCGACGAUCGUAUUCACCUCCAUUCACCUCCACUUGGCCUUCAUAGAUCUUGUCCAUGCCAAACCUAUUCAGAAGCCUGCGGGCCAGCAGCAGGCCAGUGCAAUAGGCUGCAGCAUAAUUUGUCAGGCCCAACAGAGGAUUGAGCAUCA
B20: chr12:80258887:80258888:-_ENSMUSG00000021124_ENSMUST00000055262|mus_mus|FALSE|FALSE (ssRNA)
RNA: GGGAGUUCUACAGUCCGACGAUCAUUUACCAGUCUGCUCUUAGUACGUUCCAACUGGUCUCGUUGCUCCCCCAACUCUUCUAUGAUUUCUGUACCAAUUUGAUCAGUUUCUGUGGCAAUCCGAUGAGAACGCUCAAUGCUUUGCAACAGAGGAUUGAGCAUCA
B21: chr5:145543945:145543946:-_ENSG00000133706_ENST00000545646|hu_hu|hu_hu_hu_mus_True|8_108 (ssRNA)
RNA: GGGAGUUCUACAGUCCGACGAUCCUGAAUAGCCAGUGGUGGGAAAUAAUCAAGCCAGUGCUCUGCUUCAGAAAACUUCACUAUGUCGUCAUCAGAGAGCCCAAGGGAUUUCAUAAUGUCCCACUGGUAUUUAGAAGAUCCUGCCAACAGAGGAUUGAGCAUCA
B22: chr2:207631934:207631935:+_ENSG00000118246_ENST00000403094|hu_hu|FALSE|FALSE (ssRNA)
RNA: GGGAGUUCUACAGUCCGACGAUCCUUCUGGUCAUCAGACAGUCUUUUGGCAAUUGUCCACAUUGCUGUGAAAUAGUUGCUACUAGGAAAUGUGGGCGCUUUUGAAAAUGCAUCUAACACAUCACUCAGGGAAUUACAUUCCUCCAACAGAGGAUUGAGCAUCA

target: T1, UNK ZnF1-3 (human, UniProt Q9C0B0 31-174); assay: nsRBNS (natural sequence RNA bind-n-seq); RBNS binding buffer (assumed for nsRBNS): 25 mM Tris pH 7.5, 150 mM KCl, 3 mM MgCl2, 0.01% Triton X-100, 500 ug/ml BSA, 20 U/ml SUPERase-In, 4 C; UNK is unkempt and MSI1 is Musashi-1; names of the RNAs are library labels; protein concentration not given here; high values mean tight binding
T1 sequence: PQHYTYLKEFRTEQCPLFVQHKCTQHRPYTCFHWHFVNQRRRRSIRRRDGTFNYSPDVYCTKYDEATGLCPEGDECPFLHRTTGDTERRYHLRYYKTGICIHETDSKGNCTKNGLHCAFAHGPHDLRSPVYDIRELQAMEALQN

Binder | binding signal [enrichment R]
B1 | 0.675
B2 | 0.965
B3 | 0.481
B4 | 0.991
B5 | 1.05
B6 | 1.57
B7 | 0.388
B8 | 1.41
B9 | 0.759
B10 | 0.694
B11 | 0.865
B12 | 0.569
B13 | 0.774
B14 | 0.764
B15 | 0.898
B16 | 0.445
B17 | 1.15
B18 | 2.09
B19 | 0.905
B20 | 0.591
B21 | 0.925
B22 | 0.852
